Experimental data reported in PubChem BioAssay AID686971 (National Center for Advancing Translational Sciences (NCATS), 2013).
Hit rate of the full screen: of about 360,000 compounds, about 7,500 (2.1%) were called active. Inconclusive results, whose numbers are uncertain, are shown with a selection of clear calls. Calls come from the whole dose curve; as a rule, active = well fitted cell-killing curve with a large enough effect; inconclusive = small, poorly fitted or top-dose-only effect, or effect the other way, or another doubt; inactive = no such curve, though single readings can be large or run the other way. No potency is given beside an inconclusive call; the fits are too rough.

Experiment: qHTS for induction of synthetic lethality in tumor cells producing 2HG: qHTS for the HT-1080-IDH1KD cell line;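 for activity, negative = toxicity: 0% = DMSO wells and -100% = cell-free medium wells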
Conditions: HT-1080 IDH1 knockdown viability, ATP luminescence, 48 h; activity, negative = toxicity: at 46.1 µM (top of the series) unless noted
In short: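 Cytotoxicity counter-line: IDH1KD HT-1080, 48 h, CellTiter-Glo. Curves classed by r2, magnitude and activity.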
Potency is the fitted concentration of half-maximal effect; tags give direction and shape of the fitted curve.

| SMILES | Potency | activity, negative = toxicity |
| --- | --- | --- |
| COc1cc2c(C(=O)N3CCN(c4cccc(Cl)c4)CC3)cn(C)c(=O)c2cc1OC | active: 11.6 µM | – |
| O=C(CC1(O)C(=O)N(CCc2ccccc2)c2ccccc21)c1ccco1 (stereo not drawn) | – | inactive: 18.3% |
| Clc1ccc(C[n+]2cc(-c3ccc(Cl)cc3)n3c2CCC3)cc1 | inconclusive [cytotoxic, partial curve] | – |
| O=C(Nc1cccc(C(=O)O)c1)/C(=C\c1ccc2c(c1)OCO2)NC(=O)c1ccccc1Br | – | inactive: -0.332% |
| N=C1C=CC(=C(c2ccc(N)cc2)c2ccc(N)cc2)C=C1 | active: 7.31 µM | – |
| COc1ccc(C(=O)N2CCN(c3cccc(Cl)c3)CC2)c(OC)c1 | inconclusive [cytotoxic, single point] | – |
| COc1cc(C(=O)Nc2ccc3c(c2)CCN3C(C)=O)cc(OC)c1OC | active: 2.59 µM | – |
| CCc1nc(N2CCN(S(C)(=O)=O)CC2)c2c3c(sc2n1)CCCC3 | – | inactive: -10.8% |
| Cc1cccc(CN2CCN(C3CN(Cc4ccc([N+](=O)[O-])cc4)S(=O)(=O)C3)CC2)c1 (stereo not drawn) | inconclusive [cytotoxic, single point] | – |
| Cn1ccc2c(N3CCCCCCC3)cc3c(c21)C1CCC3O1 (stereo not drawn) | inconclusive [cytotoxic, single point] | – |
| CC(C)c1cc(NC(=O)CCl)on1 | active: 25.9 µM | – |
| CN(C)S(=O)(=O)c1ccc(Cl)c(NC(=O)C2CCN(S(=O)(=O)c3cccs3)CC2)c1 | – | inactive: 1.42% |
| O=C(Nc1cnn(Cc2ccc(F)cc2)c1)C(c1ccccc1)c1ccccc1 | inconclusive [cytotoxic, partial curve] | – |
| Cc1ccc(Oc2ccc(OCC(=O)NC3CCS(=O)(=O)C3)cc2)cc1 (stereo not drawn) | inconclusive [cytotoxic, single point] | – |
| CCn1c(SCC(=O)Nc2nncs2)nnc1C(C)NC(=O)c1ccccc1Br (stereo not drawn) | – | inactive: 12.9% |
| CCCCOCCCNC(=O)C[C@@H]1C[C@@]2(C(=O)OCC)CCC=C2N(Cc2cccc3ccccc23)C1=O | inconclusive [cytotoxic, single point] | – |
| C=C(C)COc1ccc(-c2n[nH]c(C)c2-c2ccccc2OC)c(O)c1 | inconclusive [cytotoxic, single point] | – |
| C[C@@H]1CN([C@@H](C)CO)C(=O)c2cccc(NC(=O)C3CCCCC3)c2O[C@@H]1CN(C)Cc1ccc(Cl)c(Cl)c1 | inconclusive [cytotoxic, single point] | – |
| CCN(C(C)=O)c1cnc(C=NNC(N)=S)c2ccccc12 | inconclusive [cytotoxic, partial curve] | – |
| CN(C)c1nc(-c2cn(CCC#N)c3ccccc23)cs1 | active: 25.9 µM | – |
| COc1cc(/C=N/Nc2cccc(C)c2)cc(Br)c1O | inconclusive [cytotoxic, partial curve] | – |
| Cc1nc(N/N=C/c2ccc(O)cc2O)cc(N2CCOCC2)n1 | active: 4.11 µM | – |
| COc1ccc(CCNC(=O)[C@@H](NC(=O)c2ccccc2F)C(C)C)cc1OC | – | inactive: 9.36% |
| CN(C)c1cccc(CNC(=O)c2csc([C@@H]3C[C@H](O)[C@@H](CO)O3)n2)c1 | – | inactive: 3.25% |
| CSCCC(NC(=O)c1ccccc1)C(=O)NCc1ccco1 (stereo not drawn) | – | inconclusive: 30.3% |

| SMILES | Potency | activity, negative = toxicity |
| --- | --- | --- |
| CCCCNC(=O)Cn1cnc([N+](=O)[O-])n1 | – | inactive: -6.2% |
| CCOC(=O)N1CCN(C(=O)CSc2nnc(-c3ccc(C)c(C)c3)o2)CC1 | – | inactive: 6.82% |
| COc1cc(/C=C/c2cc(C(=O)O)c3ccccc3n2)ccc1OC(F)F | – | inconclusive: -2.15% [cytotoxic] |
| COc1ccc(Cl)cc1NC(=O)Nc1ccc(Br)cn1 | active: 17.8 µM | – |
| OC(c1ccc(-c2ccccc2)cc1)c1ncc(-c2ccccc2Cl)[nH]1 (stereo not drawn) | inconclusive [cytotoxic, single point] | – |
| O=C(CCS(=O)(=O)c1ccc(Cl)cc1)N1CCN(c2ccc(F)cc2)CC1 | – | inactive: -2.15% |
| CC(=O)CC(=O)Nc1ccc2ccccc2c1 | – | inactive: 2.46% |
| COc1cccc(Oc2cn[nH]c2-c2ccc(O)cc2O)c1 | inconclusive [cytotoxic, single point] | – |
| CC(NC(=O)c1ccco1)C(=O)N1CCN(c2cccc(C(F)(F)F)c2)CC1 (stereo not drawn) | – | inactive: -2.52% |
| CCc1onc(C)c1C(=O)O | – | inactive: 2.05% |
| C[C@H](O)[C@@H]1CN2CCc3c([nH]c4ccccc34)[C@@H]2C[C@@H]1N(C)C(=O)Nc1cc(Cl)cc(Cl)c1 | inconclusive [cytotoxic, single point] | – |
| COc1ccc(S(=O)(=O)N2CCOCC2)cc1NC(=O)COc1ccc(C(C)=O)cc1OC | – | inactive: 9.3% |
| COc1ccc2cc3cc(C(=O)NCc4cccnc4)oc3nc2c1 | inconclusive [cytotoxic, partial curve, poor fit] | – |
| Cc1c(C(=O)NCc2ccc(F)cc2)oc2ccc(S(=O)(=O)N3CCOCC3)cc12 | – | inactive: -15.3% |
| CN(C(=O)COC(=O)c1ccccc1SCC(=O)N1CCCC1)C1CCS(=O)(=O)C1 (stereo not drawn) | – | inactive: 2.8% |
| COc1ccc(N2C(=O)CC(NC34CC5CC(CC(C5)C3)C4)C2=O)c(OC)c1 (stereo not drawn) | inconclusive [cytotoxic, single point] | – |
| Cc1ccc(-c2nc(NCCCN(C)C)c3ccccc3n2)cc1 | inconclusive [cytotoxic, single point] | – |
| O=S(=O)(N/N=C\c1ccc(-c2ccccc2Cl)o1)c1ccccc1 | inconclusive [cytotoxic, single point] | – |
| CC(=O)NC(NC(=S)Nc1cccc(Br)c1)C(Cl)(Cl)Cl (stereo not drawn) | inconclusive [cytotoxic, partial curve] | – |
| COC(=O)[C@]12CCCCC=C1N(Cc1cccc3ccccc13)C(=O)[C@H](CC(=O)NCc1cccc(C(F)(F)F)c1)C2 | inconclusive [cytotoxic, partial curve] | – |
| CCCC1=C(C(=O)OCC)C(c2cc(Cl)cc(OC)c2OCc2ccccc2)NC(=O)N1 (stereo not drawn) | inconclusive [cytotoxic, single point] | – |
| Cn1cc(CN2CCN(CC(C)(C)C)C(CCO)C2)c2ccccc21 (stereo not drawn) | – | inactive: -13.6% |
| Cc1cc(O)ccc1Nc1nc(-c2sc(N)nc2C)cs1 | inconclusive [cytotoxic, single point] | – |
| COc1cc(/C=N/NC(=O)c2ccncc2)ccc1OC(=O)c1cccc(F)c1 | – | inactive: -7.38% |
| CC1CCc2c(sc(NC(=O)/C=C/c3cccs3)c2C(=O)O)C1 (stereo not drawn) | inconclusive [cytotoxic, single point] | – |

| SMILES | Potency | activity, negative = toxicity |
| --- | --- | --- |
| Cn1nc([N+](=O)[O-])nc1S(C)(=O)=O | active: 16.4 µM | – |
| COc1ccc(-c2nc(CS(=O)(=O)CC(=O)Nc3ccc(Cl)cc3)c(C)o2)cc1 | inconclusive [cytotoxic, single point] | – |
| Cc1nn(-c2ccccc2)c(N2CCCC2)c1/C=N/NC(=O)c1cc2ccccc2cc1O | inconclusive [cytotoxic, single point] | – |
| O=C1CCCCc2sc(Br)c([N+](=O)[O-])c2N1 | inconclusive [cytotoxic, single point] | – |
| CCOC(=O)c1sc(NC(=S)NC(=O)CC(C)C)cc1C | inconclusive [cytotoxic, single point] | – |
| COc1ccccc1OCCSc1nc2ccccc2n1CC(N)=O | – | inactive: -0.955% |
| CCCc1[nH]nc2c1C1(CCOC1C)C(C#N)=C(N)O2 (stereo not drawn) | – | inactive: 7.65% |
| CCCC1C(=O)Nc2ccccc2N1C(=O)c1ccc(C(C)(C)C)cc1 (stereo not drawn) | inconclusive [cytotoxic, single point] | – |
| O=[N+]([O-])c1cc(S(=O)(=O)N2CCCCC2)ccc1NCc1cccc(Cl)c1 | inconclusive [cytotoxic, single point] | – |
| CCN(CC)/C(Sc1ccccc1)=C(\C(Cl)=C(Cl)Cl)[N+](=O)[O-] | – | inactive: 14.8% |
| CC(=O)c1c(-c2ccccc2)c2cc([N+](=O)[O-])ccc2[nH]c1=O | – | inactive: -3.75% |
| Clc1ccc2ncc(-c3nnnn3-c3ccccc3)c(-c3ccccc3)c2c1 | inconclusive [cytotoxic, single point] | – |
| O=C(Nc1ccccc1)c1nnsc1S(=O)c1ccc(Cl)cc1 (stereo not drawn) | – | inactive: -22.3% [at 9.24 µM] |
| CN1C(=O)C(c2cn(C)c3ccccc23)(c2cn(C)c3ccccc23)c2cc(Br)ccc21 | – | inactive: -14.8% |
| COc1ccc(C(=O)Oc2cccc3cccnc23)cc1[N+](=O)[O-] | active: 16.4 µM | – |
| O=C(OCc1ccccc1)c1cn(-c2ccccc2)nc1-c1ccncc1 | – | inactive: -0.578% |
| CC(C)=CCC/C(C)=C/CNC(=O)C[C@H]1C[C@H](C(=O)N2CCCCC2)[C@@]2(CCc3ccccc3)c3[nH]c4ccc(Cl)cc4c3CCN2C1=O | – | inactive: 6.06% |
| CCN(CC)Cc1cc(Nc2c3ccccc3nc3c4ccccc4n(C)c23)cc(CN(CC)CC)c1O | inconclusive [cytotoxic, single point] | – |
| COc1ccc2c(c1)[C@H]1[C@H](CO2)[C@H](c2ccccc2)[C@]2(C)C(=O)Nc3cc(OC)c(OC)cc3C(=O)N12 | inconclusive [cytotoxic, single point] | – |
| COc1ccc(O)c(/C=N/NC(=O)c2ccc(OCc3cccc(Br)c3)cc2)c1 | active: 5.17 µM | – |
| C=CC[C@@H](CC(=O)N(CCO)Cc1ccccc1)C(=O)N[C@@H](COC(=O)[C@H](CC=C)CC(=O)OC(C)(C)C)Cc1c[nH]c2ccccc12 | inconclusive [cytotoxic, single point] | – |
| CN(C)C(CNC(=O)c1ccco1)c1cccs1 (stereo not drawn) | – | inactive: 10% |
| Cc1ccc(NC(=O)c2c(Cl)n(C)c3ccccc23)cc1 | inconclusive [cytotoxic, single point] | – |
